Results reported in the supplement of paper PMC9927326.
MIC of clinical C. albicans isolates, CLSI broth microdilution (ranges and time not stated); higher = less susceptible. Call: susceptible or wild type [S] / resistant or non-wild type [R] by CLSI breakpoints or epidemiological cut-offs; intermediate and dose-dependent carry no call here (the paper groups them with resistant). '<=' and '>=' mark each drug's lowest and highest value, inferred; the source prints them plain. Isolates are numbered anew.

Legend:
Test in all cases: CLSI broth microdilution.
itraconazole = compound: CCC(C)n1ncn(-c2ccc(N3CCN(c4ccc(OCC5COC(Cn6cncn6)(c6ccc(Cl)cc6Cl)O5)cc4)CC3)cc2)c1=O [itraconazole]
micafungin = compound: CCCCCOc1ccc(-c2cc(-c3ccc(C(=O)N[C@H]4C[C@@H](O)[C@@H](O)NC(=O)[C@@H]5[C@@H](O)[C@@H](C)CN5C(=O)[C@H]([C@H](O)CC(N)=O)NC(=O)[C@H]([C@H](O)[C@@H](O)c5ccc(O)c(OS(=O)(=O)O)c5)NC(=O)[C@@H]5C[C@@H](O)CN5C(=O)[C@H]([C@@H](C)O)NC4=O)cc3)no2)cc1 [micafungin]
anidulafungin = compound: CCCCCOc1ccc(-c2ccc(-c3ccc(C(=O)N[C@H]4C[C@@H](O)[C@@H](O)NC(=O)[C@@H]5[C@@H](O)[C@@H](C)CN5C(=O)[C@H]([C@@H](C)O)NC(=O)[C@H]([C@H](O)[C@@H](O)c5ccc(O)cc5)NC(=O)[C@@H]5C[C@@H](O)CN5C(=O)[C@H]([C@@H](C)O)NC4=O)cc3)cc2)cc1 [anidulafungin]
posaconazole = compound: CC[C@@H]([C@H](C)O)n1ncn(-c2ccc(N3CCN(c4ccc(OC[C@@H]5CO[C@@](Cn6cncn6)(c6ccc(F)cc6F)C5)cc4)CC3)cc2)c1=O [posaconazole]
caspofungin = compound: CC[C@H](C)C[C@H](C)CCCCCCCCC(=O)N[C@H]1C[C@@H](O)[C@@H](NCCN)NC(=O)[C@@H]2[C@@H](O)CCN2C(=O)[C@H]([C@H](O)CCN)NC(=O)[C@H]([C@H](O)[C@@H](O)c2ccc(O)cc2)NC(=O)[C@@H]2C[C@@H](O)CN2C(=O)[C@H]([C@@H](C)O)NC1=O [caspofungin]
voriconazole = compound: C[C@@H](c1ncncc1F)[C@](O)(Cn1cncn1)c1ccc(F)cc1F [voriconazole]
amphotericin B = compound: C[C@@H]1[C@H](O)[C@@H](C)/C=C/C=C/C=C/C=C/C=C/C=C/C=C/[C@H](O[C@@H]2O[C@H](C)[C@@H](O)[C@H](N)[C@@H]2O)C[C@@H]2O[C@](O)(C[C@@H](O)C[C@@H](O)[C@H](O)CC[C@@H](O)C[C@@H](O)CC(=O)O[C@H]1C)C[C@H](O)[C@H]2C(=O)O [amphotericin B]
flucytosine = compound: Nc1[nH]c(=O)ncc1F [flucytosine]
fluconazole = compound: OC(Cn1cncn1)(Cn1cncn1)c1ccc(F)cc1F [fluconazole]

Test System	MIC (itraconazole)	MIC (micafungin)	MIC (anidulafungin)	MIC (posaconazole)	MIC (caspofungin)	MIC (voriconazole)	MIC (amphotericin B)	MIC (flucytosine)	MIC (fluconazole)
Candida albicans isolate 210 (Erg11p: E266D, Fur1p: WT, Tac1p: C908Y)	0.06 mg/L [S]	0.015 mg/L [S]	≤ 0.015 mg/L [S]	0.06 mg/L [S]	0.06 mg/L [S]	0.015 mg/L [S]	0.5 mg/L [S]	≤ 0.06 mg/L [S]	2 mg/L [S]
Candida albicans isolate 212 (Erg11p: WT, Fur1p: R101C, Tac1p: WT)	≥ 16 mg/L [R]	0.015 mg/L [S]	0.06 mg/L [S]	≥ 8 mg/L [R]	0.06 mg/L [S]	≥ 8 mg/L [R]	0.5 mg/L [S]	0.5 mg/L [S]	≥ 256 mg/L [R]
Candida albicans isolate 195 (Erg11p: K342R,E266D, Fur1p: WT, Tac1p: I558V,A377V,F189S,N174D,M170I,K87N)	0.03 mg/L [S]	≤ 0.008 mg/L [S]	0.03 mg/L [S]	0.015 mg/L [S]	0.03 mg/L [S]	≤ 0.008 mg/L [S]	0.5 mg/L [S]	≤ 0.06 mg/L [S]	0.5 mg/L [S]
Candida albicans isolate 54 (Erg11p: E266D,G129A, Fur1p: WT, Tac1p: R869Q,L695F,I558V,A377V,F189S,M170V,L131I)	≤ 0.015 mg/L [S]	0.015 mg/L [S]	≤ 0.015 mg/L [S]	0.015 mg/L [S]	0.015 mg/L [S]	≤ 0.008 mg/L [S]	0.25 mg/L [S]	≤ 0.06 mg/L [S]	0.5 mg/L [S]
Candida albicans isolate 106 (Erg11p: V437I,E266D, Fur1p: WT, Tac1p: F189S,N174D,M170I,A90T,K87N)	0.06 mg/L [S]	0.015 mg/L [S]	0.12 mg/L [S]	0.03 mg/L [S]	0.06 mg/L [S]	0.015 mg/L [S]	0.5 mg/L [S]	≤ 0.06 mg/L [S]	1 mg/L [S]
Candida albicans isolate 3 (Erg11p: WT, Fur1p: WT, Tac1p: N896S,A717T,I558V,A377V,F189S,N174D,M170I,K87N)	0.06 mg/L [S]	0.015 mg/L [S]	0.12 mg/L [S]	0.03 mg/L [S]	0.06 mg/L [S]	0.015 mg/L [S]	0.25 mg/L [S]	≤ 0.06 mg/L [S]	0.5 mg/L [S]
Candida albicans isolate 46 (Erg11p: WT, Fur1p: WT, Tac1p: WT)	0.03 mg/L [S]	0.015 mg/L [S]	0.06 mg/L [S]	0.03 mg/L [S]	0.03 mg/L [S]	0.015 mg/L [S]	0.25 mg/L [S]	≤ 0.06 mg/L [S]	1 mg/L [S]
Candida albicans isolate 154 (Erg11p: V488I,E266D, Fur1p: WT, Tac1p: N896S,I895T)	0.03 mg/L [S]	0.015 mg/L [S]	≤ 0.015 mg/L [S]	0.03 mg/L [S]	0.03 mg/L [S]	≤ 0.008 mg/L [S]	0.5 mg/L [S]	≤ 0.06 mg/L [S]	0.5 mg/L [S]
Candida albicans isolate 78 (Erg11p: WT, Fur1p: WT, Tac1p: N896S)	≤ 0.015 mg/L [S]	≤ 0.008 mg/L [S]	≤ 0.015 mg/L [S]	0.015 mg/L [S]	0.015 mg/L [S]	≤ 0.008 mg/L [S]	0.5 mg/L [S]	≤ 0.06 mg/L [S]	0.25 mg/L [S]
Candida albicans isolate 347 (Erg11p: Y257H,A114S, Fur1p: R101C, Tac1p: A736V)	0.25 mg/L [R]	0.015 mg/L [S]	≤ 0.015 mg/L [S]	0.25 mg/L [R]	0.03 mg/L [S]	0.25 µg/mL	0.5 mg/L [S]	0.25 mg/L [S]	16 mg/L [R]
Candida albicans isolate 165 (Erg11p: V488I,H373Y,E266D, Fur1p: WT, Tac1p: N896S,I895T)	≤ 0.015 mg/L [S]	0.015 mg/L [S]	≤ 0.015 mg/L [S]	≤ 0.008 mg/L [S]	0.03 mg/L [S]	≤ 0.008 mg/L [S]	0.25 mg/L [S]	≤ 0.06 mg/L [S]	≤ 0.12 mg/L [S]
Candida albicans isolate 252 (Erg11p: Y132H,T123I, Fur1p: R101C, Tac1p: WT)	0.12 mg/L [S]	0.015 mg/L [S]	≤ 0.015 mg/L [S]	0.03 mg/L [S]	≤ 0.008 mg/L [S]	0.25 µg/mL	0.25 mg/L [S]	0.5 mg/L [S]	4 µg/mL
Candida albicans isolate 164 (Erg11p: E266D, Fur1p: WT, Tac1p: N896S,I558V)	0.03 mg/L [S]	0.015 mg/L [S]	0.06 mg/L [S]	0.015 mg/L [S]	0.06 mg/L [S]	0.015 mg/L [S]	0.25 mg/L [S]	≤ 0.06 mg/L [S]	0.25 mg/L [S]
Candida albicans isolate 231 (Erg11p: WT, Fur1p: WT, Tac1p: I558V,A377V,F189S,N174D,M170I,K87N)	≤ 0.015 mg/L [S]	0.015 mg/L [S]	0.03 mg/L [S]	≤ 0.008 mg/L [S]	0.03 mg/L [S]	≤ 0.008 mg/L [S]	0.5 mg/L [S]	≤ 0.06 mg/L [S]	≤ 0.12 mg/L [S]
Candida albicans isolate 309 (Erg11p: V488I,E266D, Fur1p: WT, Tac1p: N896S,I895T)	0.06 mg/L [S]	0.015 mg/L [S]	0.03 mg/L [S]	0.03 mg/L [S]	0.12 mg/L [S]	0.015 mg/L [S]	0.5 mg/L [S]	≤ 0.06 mg/L [S]	0.5 mg/L [S]
Candida albicans isolate 99 (Erg11p: E266D, Fur1p: WT, Tac1p: T885K,I558V,A430V,A377V,F189S,N174D,M170I,M170V,K87N)	≤ 0.015 mg/L [S]	≤ 0.008 mg/L [S]	≤ 0.015 mg/L [S]	0.015 mg/L [S]	0.03 mg/L [S]	≤ 0.008 mg/L [S]	0.5 mg/L [S]	≤ 0.06 mg/L [S]	0.25 mg/L [S]
Candida albicans isolate 321 (Erg11p: V488I,E266D, Fur1p: WT, Tac1p: N896S,L695F,I558V,F189S,L131I)	0.06 mg/L [S]	≤ 0.008 mg/L [S]	0.03 mg/L [S]	0.03 mg/L [S]	0.06 mg/L [S]	0.015 mg/L [S]	0.5 mg/L [S]	0.12 mg/L [S]	1 mg/L [S]
